Among the data in the supplement of paper PMC4967469 are AUC and IC50 values, retold here.

A lower IC50 marks a more sensitive line; a fit beyond the top or the lowest dose is shown as a bound at that dose. AUC is the area under the same curve over the 256-fold range up to the top dose, as a fraction; it is 1 without any effect and falls as sensitivity rises.

Compound in the assay: FC(F)c1nc2ccccc2n1-c1nc(N2CCOCC2)nc(N2CCOCC2)n1 [ZSTK474]
Put plainly: Viability of human cancer cell lines after 72 h of drug (GDSC screen). The procedure:
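Human cancer cell lines in 384-well plates, medium with 10% serum, drug for 72 h over a 256-fold dose range (nine 2-fold or five 4-fold steps up to the top dose). Adherent lines were fixed and stained with the nucleic acid dye Syto60, suspension lines read with resazurin; signal relative to control wells, capped at 0 and 100%. One two-parameter sigmoid per drug and line, fitted in a mixed model over all curves with the slope shared within a line.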

Usually IC50 stands for the concentration needed to halve the response being measured. For “MY-M12 (leukaemia, suspension, top dose 5.12 µM)”, the AUC amounted to 0.488 and the IC50 turned out to be 0.296 µM.
In the same order, the values of “MZ1-PC (pancreas, adherent, top dose 5.12 µM)” are 0.58 and 0.56 µM.
In the same order, the values of “MZ2-MEL (melanoma, adherent, top dose 5.12 µM)” are 0.693 and 1.23 µM.
For “MZ7-mel (melanoma, adherent, top dose 5.12 µM)” the same measures were 0.635 and 0.767 µM.
Regarding “Mewo (melanoma, adherent, top dose 5.12 µM)”, the AUC stood at 0.94 and the IC50 was greater than 5.12 µM.
In the same order, the values of “Mo-T (hairy cell leukaemia, suspension, top dose 5.12 µM)” are 0.562 and 0.473 µM.
For “NALM-6 (B-cell leukaemia, suspension, top dose 5.12 µM)”, the AUC is 0.159 and the IC50 was 0.0372 µM.
In the same order, the values of “NAMALWA (Burkitt lymphoma, suspension, top dose 5.12 µM)” are 0.455 and 0.246 µM.
For “NB5 (neuroblastoma, adherent, top dose 5.12 µM)” the same measures were 0.661 and 0.9 µM.
For “NB6 (neuroblastoma, adherent, top dose 5.12 µM)” the same measures were 0.802 and 3.21 µM.
With “NB7 (neuroblastoma, adherent, top dose 5.12 µM)”, the AUC is 0.818 and the IC50 amounted to 3.06 µM.
In the same order, the values of “NB10 (neuroblastoma, adherent, top dose 5.12 µM)” are 0.932 and greater than 5.12 µM.
For “NB12 (neuroblastoma, adherent, top dose 5.12 µM)” the same measures were 0.785 and 3.06 µM.
In the same order, the values of “NB13 (neuroblastoma, adherent, top dose 5.12 µM)” are 0.979 and greater than 5.12 µM.
As to “NB14 (neuroblastoma, adherent, top dose 5.12 µM)”, the AUC was 0.954 and the 50% inhibitory concentration (IC50) is greater than 5.12 µM.
As to “NB17 (neuroblastoma, adherent, top dose 5.12 µM)”, the AUC is 0.947 and the IC50 is greater than 5.12 µM.
In the same order, the values of “NB69 (neuroblastoma, adherent, top dose 5.12 µM)” are 0.563 and 0.466 µM.
In the same order, the values of “NB(TU)1-10 (neuroblastoma, adherent, top dose 5.12 µM)” are 0.974 and greater than 5.12 µM.
In the same order, the values of “NB-4 (acute myeloid leukaemia, suspension, top dose 5.12 µM)” are 0.556 and 0.441 µM.
Take “NCC021 (kidney, adherent, top dose 5.12 µM)”: the AUC was 0.625 and the IC50 came out at 0.753 µM.
Take “NCI-H23 (lung adenocarcinoma, adherent, top dose 5.12 µM)”: the AUC came to 0.928 and the IC50 was greater than 5.12 µM.
With “NCI-H28 (mesothelioma, adherent, top dose 5.12 µM)”, the AUC amounted to 0.961 and the IC50 is greater than 5.12 µM.
Regarding “NCI-H64 (small cell lung carcinoma, suspension, top dose 5.12 µM)”, the AUC was determined as 0.434 and the IC50 was found to be 0.221 µM.
For “NCI-H69 (small cell lung carcinoma, suspension, top dose 5.12 µM)” the same measures were 0.709 and 1.34 µM.
In the case of “NCI-H82 (small cell lung carcinoma, suspension, top dose 5.12 µM)”, the AUC was 0.937 and the IC50 was greater than 5.12 µM.
For “NCI-H187 (small cell lung carcinoma, suspension, top dose 5.12 µM)” the same measures were 0.921 and greater than 5.12 µM.
For “NCI-H196 (small cell lung carcinoma, adherent, top dose 5.12 µM)” the same measures were 0.935 and greater than 5.12 µM.
In the same order, the values of “NCI-H209 (small cell lung carcinoma, suspension, top dose 5.12 µM)” are 0.935 and greater than 5.12 µM.
For the cell line “NCI-H211 (small cell lung carcinoma, adherent, top dose 5.12 µM)”, the AUC was 0.748 and the IC50 stood at 1.6 µM.
In the same order, the values of “NCI-H226 (lung squamous cell carcinoma, adherent, top dose 5.12 µM)” are 0.86 and 4.67 µM.
In the same order, the values of “NCI-H292 (lung adenocarcinoma, adherent, top dose 5.12 µM)” are 0.722 and 1.59 µM.
“NCI-H322M (lung adenocarcinoma, suspension, top dose 5.12 µM)”: the AUC was determined as 0.819 and the half-maximal inhibitory concentration (IC50) came out at 3.85 µM.
For “NCI-H345 (small cell lung carcinoma, suspension, top dose 5.12 µM)” the same measures were 0.99 and greater than 5.12 µM.
In the same order, the values of “NCI-H358 (lung adenocarcinoma, adherent, top dose 5.12 µM)” are 0.703 and 1.28 µM.
In the same order, the values of “NCI-H441 (lung adenocarcinoma, adherent, top dose 5.12 µM)” are 0.972 and greater than 5.12 µM.
With “NCI-H446 (small cell lung carcinoma, semi-adherent, top dose 5.12 µM)”, the AUC came to 0.723 and the IC50 was 1.44 µM.
In the same order, the values of “NCI-H460 (large cell lung carcinoma, adherent, top dose 5.12 µM)” are 0.982 and greater than 5.12 µM.
In the same order, the values of “NCI-H510A (small cell lung carcinoma, semi-adherent, top dose 5.12 µM)” are 0.972 and greater than 5.12 µM.
As to “NCI-H520 (lung squamous cell carcinoma, adherent, top dose 5.12 µM)”, the AUC stood at 0.388 and the IC50 amounted to 0.155 µM.
In the same order, the values of “NCI-H522 (lung adenocarcinoma, adherent, top dose 5.12 µM)” are 0.942 and greater than 5.12 µM.
For “NCI-H524 (small cell lung carcinoma, suspension, top dose 5.12 µM)” the same measures were 0.838 and 2.94 µM.
As to “NCI-H526 (small cell lung carcinoma, suspension, top dose 5.12 µM)”, the AUC came out at 0.792 and the IC50 turned out to be 2.2 µM.
For “NCI-H596 (lung adenocarcinoma, adherent, top dose 5.12 µM)” the same measures were 0.654 and 0.973 µM.
As for “NCI-H630 (large intestine, adherent, top dose 5.12 µM)”, the AUC was 0.867 and the IC50 is greater than 5.12 µM.
In the case of “NCI-H647 (non-small cell lung carcinoma, adherent, top dose 5.12 µM)”, the AUC is 0.601 and the half-maximal inhibitory concentration (IC50) stood at 0.614 µM.
In the same order, the values of “NCI-H650 (lung adenocarcinoma, adherent, top dose 5.12 µM)” are 0.72 and 1.44 µM.
For “NCI-H661 (large cell lung carcinoma, adherent, top dose 5.12 µM)” the same measures were 0.861 and greater than 5.12 µM.
In the same order, the values of “NCI-H716 (large intestine, suspension, top dose 5.12 µM)” are 0.798 and 3.2 µM.
Turning to “NCI-H720 (lung carcinoid, suspension, top dose 5.12 µM)”, the AUC turned out to be 0.99 and the IC50 is greater than 5.12 µM.
For “NCI-H727 (lung carcinoid, adherent, top dose 5.12 µM)” the same measures were 0.87 and greater than 5.12 µM.
For “NCI-H747 (large intestine, adherent, top dose 5.12 µM)” the same measures were 0.458 and 0.239 µM.
Take “NCI-H748 (small cell lung carcinoma, suspension, top dose 5.12 µM)”: the AUC stood at 0.892 and the IC50 was greater than 5.12 µM.
On to “NCI-H810 (large cell lung carcinoma, adherent, top dose 5.12 µM)”, for which the AUC amounted to 0.837 and the IC50 is 3.22 µM.
On to “NCI-H838 (lung adenocarcinoma, adherent, top dose 5.12 µM)”, for which the AUC was found to be 0.976 and the IC50 is greater than 5.12 µM.
For “NCI-H841 (small cell lung carcinoma, adherent, top dose 5.12 µM)” the same measures were 0.861 and 4.37 µM.
For “NCI-H847 (small cell lung carcinoma, adherent, top dose 5.12 µM)” the same measures were 0.975 and greater than 5.12 µM.
For “NCI-H1048 (small cell lung carcinoma, adherent, top dose 5.12 µM)” the same measures were 0.426 and 0.205 µM.
Consider “NCI-H1092 (small cell lung carcinoma, suspension, top dose 5.12 µM)”, for which the AUC was 0.874 and the IC50 was 5.05 µM.
In the same order, the values of “NCI-H1155 (large cell lung carcinoma, suspension, top dose 5.12 µM)” are 0.938 and greater than 5.12 µM.
For “NCI-H1299 (large cell lung carcinoma, adherent, top dose 5.12 µM)” the same measures were 0.869 and greater than 5.12 µM.
In the same order, the values of “NCI-H1304 (small cell lung carcinoma, suspension, top dose 5.12 µM)” are 0.661 and 0.934 µM.
